Source: publication PMC11995724, “Antibiotic target discovery by integrated phenotypic and activity-based profiling of electrophilic fragments” (Cell chemical biology, 2025)
Hit rate of the full screen: of about 3,200 compounds, about 110 (3.4%) showed an effect of 50% or more. Some of the results follow.

Test system: T1, V. cholerae SAD30
T1 construct: SAD30
Set-up: species or system S. aureus MSSA476 (TSB) or V. cholerae SAD30 (LB); 384-well bacterial growth screen at 25 uM, OD600 relative to DMSO control
Conditions: relative growth, OD600, LB; 25 µM; inhibitor

Structure (SMILES)	% of control remaining [%]
C=CC(=O)Nc1nc(C)c(CC(C)C)s1 [1-J12, N-[4-methyl-5-(2-methylpropyl)-1,3-thiazol-2-yl]prop-2-enamide]	105.741
CC(C)c1ccc(C(C)NC(=O)CCl)cc1 (stereo not drawn) [4-I05, 2-chloro-N-{1-[4-(propan-2-yl)phenyl]ethyl}acetamide]	99.2021
CC(Cl)C(=O)N1CCN(CC(F)(F)F)CC1C(C)C (stereo not drawn) [7-C22, 2-chloro-1-[2-(propan-2-yl)-4-(2,2,2-trifluoroethyl)piperazin-1-yl]propan-1-one]	85.247
CC(Cl)C(=O)NC1CCN(CC(=O)Nc2ccccc2)CC1 (stereo not drawn) [7-E13, 2-chloro-N-{1-[(phenylcarbamoyl)methyl]piperidin-4-yl}propanamide]	74.938
CN(C)S(=O)(=O)c1cc(NC(=O)CCl)ccc1Cl [5-E13, 2-chloro-N-[4-chloro-3-(dimethylsulfamoyl)phenyl]acetamide]	91.9618
C=CC(=O)N(C)CC(=O)N1CCn2cc(C(F)(F)F)nc2C1 [3-A04, N-methyl-N-{2-oxo-2-[2-(trifluoromethyl)-5H,6H,7H,8H-imidazo[1,2-a]pyrazin-7-yl]ethyl}prop-2-enamide]	103.382
NC(=O)c1coc(C(=O)CCl)c1 [10-C05, 5-(2-chloroacetyl)furan-3-carboxamide]	96.1621
COCC(C)NC(=O)C(C#N)=Cc1cc2cc(F)ccc2o1 (stereo not drawn) [9-F04, 2-cyano-3-(5-fluoro-1-benzofuran-2-yl)-N-(1-methoxypropan-2-yl)prop-2-enamide]	89.123
N#CC(=Cc1ccccc1OC(F)F)C(=O)Nc1ccccc1Cl [9-M21, N-(2-chlorophenyl)-2-cyano-3-[2-(difluoromethoxy)phenyl]prop-2-enamide]	89.5309
CS(=O)(=O)N1CCCc2cc(C(=O)CCl)ccc21 [10-H19, 2-chloro-1-(1-methanesulfonyl-1,2,3,4-tetrahydroquinolin-6-yl)ethan-1-one]	22.9106
CN(Cc1ccc(N(C)C)cc1)C(=O)CCl.Cl [5-F06, 2-chloro-N-{[4-(dimethylamino)phenyl]methyl}-N-methylacetamide hydrochloride]	92.298
Cl.O=C(CCl)Nc1ccccn1 [5-B14, 2-chloro-N-(pyridin-2-yl)acetamide hydrochloride]	98.0141
O=C(CCl)Nc1sc2c(c1C(=O)c1ccccc1)CCCC2 [4-A06, N-(3-benzoyl-4,5,6,7-tetrahydro-1-benzothiophen-2-yl)-2-chloroacetamide]	90.5758
COc1ccccc1[C@H]1C[C@H](NC(=O)CCl)C1 [7-L18, 2-chloro-N-[(1r,3r)-3-(2-methoxyphenyl)cyclobutyl]acetamide]	80.7533
CC(Cl)C(=O)NC1CCCN(c2ncccn2)C1 (stereo not drawn) [7-C21, 2-chloro-N-[1-(pyrimidin-2-yl)piperidin-3-yl]propanamide]	83.3967
C=CC(=O)Nc1cccc(C(F)(F)CF)c1 [2-O12, N-[3-(1,1,2-trifluoroethyl)phenyl]prop-2-enamide]	84.6377
CCc1ccc(CC)c(C(=O)CCl)c1 [10-H14, 2-chloro-1-(2,5-diethylphenyl)ethan-1-one]	95.8504
CC(C)N(Cc1ccccc1)C(=O)CCl [5-J20, N-benzyl-2-chloro-N-(propan-2-yl)acetamide]	99.6953
Cc1ccc(C)c(NC(=O)C(C#N)=Cc2ccc3c(c2)OCCO3)c1 [8-L11, 2-cyano-3-(2,3-dihydro-1,4-benzodioxin-6-yl)-N-(2,5-dimethylphenyl)prop-2-enamide]	73.6234
C=CC(=O)NC[C@@H]1CCCN1c1ccccc1 [3-E03, N-{[(2S)-1-phenylpyrrolidin-2-yl]methyl}prop-2-enamide]	105.852
C=CC(=O)N1CCCC(c2nn(C)cc2C(N)=O)C1 (stereo not drawn) [1-D07, 1-methyl-3-[1-(prop-2-enoyl)piperidin-3-yl]-1H-pyrazole-4-carboxamide]	92.9746
CC1CCCCC1NC(=O)C(C#N)=Cc1cccc(O)c1 (stereo not drawn) [8-E07, 2-cyano-3-(3-hydroxyphenyl)-N-(2-methylcyclohexyl)prop-2-enamide]	76.3426
NS(=O)(=O)c1ccc(CNC(=O)CCl)cc1 [4-P12, 2-chloro-N-[(4-sulfamoylphenyl)methyl]acetamide]	116.972

Structure (SMILES)	% of control remaining [%]
N#CC(=Cc1ccc(-c2cccc([N+](=O)[O-])c2)o1)C(=O)N1CCOCC1 [8-C07, 2-(morpholine-4-carbonyl)-3-[5-(3-nitrophenyl)furan-2-yl]prop-2-enenitrile]	81.3732
C=CC(=O)NCC1(c2nc(-c3ccccc3)cs2)CCOCC1 [2-A11, N-{[4-(4-phenyl-1,3-thiazol-2-yl)oxan-4-yl]methyl}prop-2-enamide]	89.7327
Cc1cc(C=C(C#N)C(=O)Nc2nccs2)ccc1-n1cncn1 [9-J14, 2-cyano-3-[3-methyl-4-(1H-1,2,4-triazol-1-yl)phenyl]-N-(1,3-thiazol-2-yl)prop-2-enamide]	94.4256
CC(Cl)C(=O)NCc1nc(-c2cccc(C#N)c2)c[nH]1 (stereo not drawn) [6-F09, 2-chloro-N-{[4-(3-cyanophenyl)-1H-imidazol-2-yl]methyl}propanamide]	91.9139
Cn1cc(NC(=O)CCl)c(C(=O)NC2CCC2)n1 [5-A22, 4-(2-chloroacetamido)-N-cyclobutyl-1-methyl-1H-pyrazole-3-carboxamide]	108.101
Cc1ccc(NC(=O)CCl)cc1S(=O)(=O)N(C)C [4-A09, 2-chloro-N-[3-(dimethylsulfamoyl)-4-methylphenyl]acetamide]	104.55
O=C(CCl)N(Cc1ccc(Cl)c([N+](=O)[O-])c1)c1ccccc1 [6-H06, 2-chloro-N-[(4-chloro-3-nitrophenyl)methyl]-N-phenylacetamide]	93.4307
C=CC(=O)Nc1cccc2ccccc12 [1-G10, N-(naphthalen-1-yl)prop-2-enamide]	85.7997
Cc1ccc(-n2c(C)cc(C(=O)CCl)c2C)cc1F [10-C06, 2-chloro-1-[1-(3-fluoro-4-methylphenyl)-2,5-dimethyl-1H-pyrrol-3-yl]ethan-1-one]	94.9153
Cc1ccc(C(CNC(=O)C(C)Cl)N2CCOCC2)s1 (stereo not drawn) [7-N13, 2-chloro-N-[2-(5-methylthiophen-2-yl)-2-(morpholin-4-yl)ethyl]propanamide]	78.6387
COc1cc(C=C(C#N)C(=O)Nc2ccc3c(c2)OCCO3)ccc1O [8-N06, 2-cyano-N-(2,3-dihydro-1,4-benzodioxin-6-yl)-3-(4-hydroxy-3-methoxyphenyl)prop-2-enamide]	70.9041
CC(Cl)C(=O)Nc1cccc(Cl)c1 (stereo not drawn) [5-H22, 2-chloro-N-(3-chlorophenyl)propanamide]	106.42
COc1ccc(C(C)(C)C)cc1NC(=O)CCl [4-C07, N-(5-tert-butyl-2-methoxyphenyl)-2-chloroacetamide]	98.3394
CCC1CN(CCn2cccn2)CCN1C(=O)C(C)Cl (stereo not drawn) [7-F07, 2-chloro-1-{2-ethyl-4-[2-(1H-pyrazol-1-yl)ethyl]piperazin-1-yl}propan-1-one]	83.1323
C=CC(=O)N1CC(S(=O)(=O)N2CCOCC2)C1 [2-A16, 1-[3-(morpholine-4-sulfonyl)azetidin-1-yl]prop-2-en-1-one]	94.0558
C=CC(=O)N1CCC(Cc2nc3ccc(F)cc3o2)CC1 [3-O07, 1-{4-[(6-fluoro-1,3-benzoxazol-2-yl)methyl]piperidin-1-yl}prop-2-en-1-one]	99.1472
Cc1nn(C)c(C)c1NC(=O)C(C)Cl (stereo not drawn) [6-C07, 2-chloro-N-(1,3,5-trimethyl-1H-pyrazol-4-yl)propanamide]	93.279
N#CC(=Cc1cccc(Cl)c1)C(=O)NCc1ccccc1 [9-L13, N-benzyl-3-(3-chlorophenyl)-2-cyanoprop-2-enamide]	62.7464
N#CC(=Cc1cnc(-c2ccccc2)nc1)C(=O)NCc1ccco1 [9-M14, 2-cyano-N-[(furan-2-yl)methyl]-3-(2-phenylpyrimidin-5-yl)prop-2-enamide]	95.2413
C=CC(=O)N(C)CC(=O)NC1CCCN(c2cc(C)nc(C)n2)C1 (stereo not drawn) [3-A12, N-({[1-(2,6-dimethylpyrimidin-4-yl)piperidin-3-yl]carbamoyl}methyl)-N-methylprop-2-enamide]	113.968
C=CC(=O)N1CCC(C(=O)NCc2ccccc2-n2cccn2)CC1 [3-N03, 1-(prop-2-enoyl)-N-{[2-(1H-pyrazol-1-yl)phenyl]methyl}piperidine-4-carboxamide]	103.382
C=CC(=O)NCc1ccsc1-n1cccc1 [1-K08, N-{[2-(1H-pyrrol-1-yl)thiophen-3-yl]methyl}prop-2-enamide]	82.9596
